Experimental data from the supplement of paper PMC12217912.
The list shows a part of the results. The full chains were built here from the parent and the listed change. Inactive controls read about 0.05.

B1: TEV protease; numbered along this chain (parent)
chain: MGESLFKGPRDYNPISSSICHLTNESDGHTTSLYGIGFGPFIITNKHLFRRNNGTLVVQSLHGVFKVKDTTTLQQHLVDGRDMIIIRMPKDFPPFPQKLKFREPQREERICLVTTNFQTKSMSSMVSDTSCTFPSGDGIFWKHWIQTKDGQCGSPLVSTRDGFIVGIHSASNFTNTNNYFTSVPKNFMELLTNQEAQQWVSGWRLNADSVLWGGHKVFMVKPEEPFQPVKEATQL

Variants of: B1
Assay: raw area under fraction-flipped curve 0-4 h after induction (AUC4h, not background-subtracted), DNA-recorder readout of cleavage of the substrate (dimensionless); higher = more cleavage of the substrate by the protease variant
Details: temperature: 34 °C; time window: 0-4 h after rhamnose induction
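Note: Bxb1 expression induced with 0.2% (w/v) L-rhamnose at OD600 near 0.5, cultures sampled hourly, flipped fraction per protease–substrate barcode pair counted by paired-end Illumina sequencing.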

What does the source list for G35K?
area with substrate ENLYFIS: 0.0488; area with substrate ENLYFKS: 0.0502; area with substrate ENLYFVS: 0.0267

With E195Y as the variant, how does the “area with substrate ENLYFGS” value read?
The value was 0.0524.

And the “area with substrate ENLYFIS” value?
Its value is 0.06.

And the “area with substrate ENLYFMS” value?
Its value is 0.0619.

And the “area with substrate ENLYFPS” value?
The value was 0.0541.

And the “area with substrate ENLYFWS” value?
The value was 0.0577.

Which “area with substrate ENLYFFS” value does the source give for F95M here?
The value was 0.0565.

What about the “area with substrate ENLYFPS” value of the same variant?
The value was 0.0694.

Which results are given for L5R?
area with substrate ENLYFFS: 0.0629; area with substrate ENLYFKS: 0.0585; area with substrate ENLYFNS: 0.0678; area with substrate ENLYFRS: 0.0457

Which results are given for N186A?
area with substrate ENLYFIS: 0.0531; area with substrate ENLYFPS: 0.0482; area with substrate ENLYFYS: 0.0445

With Q234G as the variant, how does the “area with substrate ENLYFFS” value read?
The value was 0.0717.

And the “area with substrate ENLYFMS” value?
Its value is 0.0496.

What about the “area with substrate ENLYFPS” value of the same variant?
Its value is 0.0535.

What about the “area with substrate ENLYFRS” value of the same variant?
The value was 0.0615.

With S209I as the variant, how does the “area with substrate ENLYFIS” value read?
Its value is 0.0302.

And the “area with substrate ENLYFNS” value?
Its value is 0.0659.

And the “area with substrate ENLYFPS” value?
Its value is 0.0806.

With G8N as the variant, how does the “area with substrate ENLYFHS” value read?
The value was 0.0495.

And the “area with substrate ENLYFIS” value?
The value was 0.0563.

And the “area with substrate ENLYFKS” value?
The value was 0.0622.

What about the “area with substrate ENLYFPS” value of the same variant?
Its value is 0.0208.

And the “area with substrate ENLYFTS” value?
Its value is 0.0581.

With R160M as the variant, how does the “area with substrate ENLYFFS” value read?
Its value is 0.0662.

And the “area with substrate ENLYFIS” value?
Its value is 0.0386.

And the “area with substrate ENLYFMS” value?
The value was 0.0732.

What about the “area with substrate ENLYFWS” value of the same variant?
The value was 0.0642.

And the “area with substrate ENLYFYS” value?
The value was 0.0536.

Which results are given for G153R?
area with substrate ENLYFFS: 0.0528; area with substrate ENLYFLS: 0.0498

Which results are given for R106P?
area with substrate ENLYFFS: 0.0556; area with substrate ENLYFHS: 0.0701; area with substrate ENLYFIS: 0.08; area with substrate ENLYFKS: 0.0421; area with substrate ENLYFMS: 0.0657; area with substrate ENLYFPS: 0.0855; area with substrate ENLYFRS: 0.0743; area with substrate ENLYFSS: 0.0803; area with substrate ENLYFTS: 0.0747; area with substrate ENLYFVS: 0.0681; area with substrate ENLYFWS: 0.0601; area with substrate ENLYFYS: 0.0803

Which “area with substrate ENLYFFS” value does the source give for C152Q here?
The value was 0.0778.

And the “area with substrate ENLYFIS” value?
The value was 0.0632.

And the “area with substrate ENLYFPS” value?
The value was 0.0569.

And the “area with substrate ENLYFTS” value?
Its value is 0.0627.

What does the source list for H215A?
area with substrate ENLYFGS: 0.0527; area with substrate ENLYFHS: 0.0581; area with substrate ENLYFIS: 0.0571; area with substrate ENLYFKS: 0.0658; area with substrate ENLYFNS: 0.0612; area with substrate ENLYFPS: 0.0557; area with substrate ENLYFRS: 0.0373; area with substrate ENLYFSS: 0.0915; area with substrate ENLYFVS: 0.0562; area with substrate ENLYFYS: 0.0503

With T119E as the variant, how does the “area with substrate ENLYFHS” value read?
The value was 0.072.

And the “area with substrate ENLYFIS” value?
The value was 0.0552.

What about the “area with substrate ENLYFMS” value of the same variant?
Its value is 0.083.

What about the “area with substrate ENLYFNS” value of the same variant?
The value was 0.0653.

What about the “area with substrate ENLYFSS” value of the same variant?
The value was 0.0725.

What about the “area with substrate ENLYFVS” value of the same variant?
Its value is 0.0459.

And the “area with substrate ENLYFWS” value?
Its value is 0.0455.

What does the source list for T174A?
area with substrate ENLYFIS: 0.0531; area with substrate ENLYFNS: 0.0918; area with substrate ENLYFSS: 0.0562; area with substrate ENLYFWS: 0.0637; area with substrate ENLYFYS: 0.0613

With K216A as the variant, how does the “area with substrate ENLYFIS” value read?
The value was 0.0529.

What about the “area with substrate ENLYFKS” value of the same variant?
The value was 0.0439.

And the “area with substrate ENLYFPS” value?
Its value is 0.0428.

And the “area with substrate ENLYFRS” value?
The value was 0.0895.

What about the “area with substrate ENLYFTS” value of the same variant?
The value was 0.04.

What about the “area with substrate ENLYFVS” value of the same variant?
The value was 0.0423.

What about the “area with substrate ENLYFWS” value of the same variant?
Its value is 0.048.

For P104A, which “area with substrate ENLYFFS” value is on record?
Its value is 0.0624.

And the “area with substrate ENLYFIS” value?
The value was 0.0579.

And the “area with substrate ENLYFMS” value?
Its value is 0.0669.

What about the “area with substrate ENLYFNS” value of the same variant?
The value was 0.061.

And the “area with substrate ENLYFPS” value?
The value was 0.0795.

And the “area with substrate ENLYFRS” value?
The value was 0.0582.

And the “area with substrate ENLYFSS” value?
Its value is 0.0546.

What about the “area with substrate ENLYFTS” value of the same variant?
Its value is 0.0429.

And the “area with substrate ENLYFVS” value?
The value was 0.0527.

What about the “area with substrate ENLYFWS” value of the same variant?
The value was 0.0653.

And the “area with substrate ENLYFYS” value?
Its value is 0.0421.

Which “area with substrate ENLYFNS” value does the source give for P104K here?
The value was 0.0548.

What about the “area with substrate ENLYFSS” value of the same variant?
Its value is 0.0469.

And the “area with substrate ENLYFTS” value?
Its value is 0.0484.

And the “area with substrate ENLYFYS” value?
Its value is 0.0188.

With L205V as the variant, how does the “area with substrate ENLYFKS” value read?
Its value is 0.047.

And the “area with substrate ENLYFPS” value?
The value was 0.0611.

What about the “area with substrate ENLYFRS” value of the same variant?
The value was 0.0969.

And the “area with substrate ENLYFWS” value?
Its value is 0.0419.

Which “area with substrate ENLYFFS” value does the source give for I110E here?
Its value is 0.0626.

And the “area with substrate ENLYFMS” value?
The value was 0.0728.

What about the “area with substrate ENLYFTS” value of the same variant?
The value was 0.0578.

For K120T, which “area with substrate ENLYFGS” value is on record?
The value was 0.0615.

What about the “area with substrate ENLYFIS” value of the same variant?
The value was 0.0601.

What about the “area with substrate ENLYFLS” value of the same variant?
The value was 0.0654.

And the “area with substrate ENLYFPS” value?
The value was 0.0661.

What about the “area with substrate ENLYFTS” value of the same variant?
Its value is 0.0585.

What about the “area with substrate ENLYFYS” value of the same variant?
Its value is 0.0578.

Which results are given for I167G?
area with substrate ENLYFFS: 0.0363; area with substrate ENLYFHS: 0.0656; area with substrate ENLYFIS: 0.0579; area with substrate ENLYFPS: 0.0563; area with substrate ENLYFRS: 0.0552; area with substrate ENLYFVS: 0.0513; area with substrate ENLYFYS: 0.0499

For P184K, which “area with substrate ENLYFFS” value is on record?
The value was 0.0663.

What about the “area with substrate ENLYFGS” value of the same variant?
The value was 0.0508.

What about the “area with substrate ENLYFIS” value of the same variant?
The value was 0.0663.

And the “area with substrate ENLYFKS” value?
The value was 0.0535.

What about the “area with substrate ENLYFMS” value of the same variant?
Its value is 0.0672.

And the “area with substrate ENLYFPS” value?
Its value is 0.0414.

And the “area with substrate ENLYFRS” value?
Its value is 0.0664.

What about the “area with substrate ENLYFTS” value of the same variant?
Its value is 0.0465.

What about the “area with substrate ENLYFVS” value of the same variant?
The value was 0.0515.

What about the “area with substrate ENLYFWS” value of the same variant?
The value was 0.054.
